# Data as given in PubChem BioAssay AID488969 (Vanderbilt High Throughput Screening Facility, 2010).
# The full ranking holds about 110,000 compounds; the median of “z-score” is about -0.1, and the highest 2% start at about 2. Some of the results follow. The source made the active and inactive calls.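 How the source made its calls: active means z-score in the third read window above 3 or below -3; inactive means the rest.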
# Target: Metabotropic glutamate receptor 8 (Rattus norvegicus) (UniProt P70579)
# Chain of UniProt P70579 (P70579 whole entry, looked up): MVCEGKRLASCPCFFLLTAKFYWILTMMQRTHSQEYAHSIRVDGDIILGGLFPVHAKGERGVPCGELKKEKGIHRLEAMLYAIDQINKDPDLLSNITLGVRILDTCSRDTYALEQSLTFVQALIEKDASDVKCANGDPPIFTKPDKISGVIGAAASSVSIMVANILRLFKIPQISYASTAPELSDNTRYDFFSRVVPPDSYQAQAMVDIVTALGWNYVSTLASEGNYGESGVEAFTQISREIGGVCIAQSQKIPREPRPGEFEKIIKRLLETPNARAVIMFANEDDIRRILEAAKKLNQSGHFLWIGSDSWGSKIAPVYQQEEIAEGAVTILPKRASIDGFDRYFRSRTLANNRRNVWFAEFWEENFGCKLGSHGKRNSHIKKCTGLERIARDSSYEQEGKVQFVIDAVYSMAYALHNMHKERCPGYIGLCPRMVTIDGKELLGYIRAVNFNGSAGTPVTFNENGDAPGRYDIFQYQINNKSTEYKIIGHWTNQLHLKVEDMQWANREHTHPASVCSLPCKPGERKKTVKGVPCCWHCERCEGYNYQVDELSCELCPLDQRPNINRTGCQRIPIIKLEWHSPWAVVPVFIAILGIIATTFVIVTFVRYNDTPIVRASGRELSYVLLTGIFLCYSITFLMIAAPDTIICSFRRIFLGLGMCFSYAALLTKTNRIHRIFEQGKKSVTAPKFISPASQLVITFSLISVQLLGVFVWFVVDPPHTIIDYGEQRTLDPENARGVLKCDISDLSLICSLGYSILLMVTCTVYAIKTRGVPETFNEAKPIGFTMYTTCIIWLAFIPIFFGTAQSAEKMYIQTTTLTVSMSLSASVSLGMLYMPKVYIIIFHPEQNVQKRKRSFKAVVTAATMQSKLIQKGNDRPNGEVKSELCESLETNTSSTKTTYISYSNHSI
# Assay: rat mGluR8 modulators via GIRK flux, primary screen, cell-based, thallium flux, HTS (AID 488969)
# Conditions: HEK293 rat mGluR8, GIRK (G protein-gated inwardly rectifying potassium channel) thallium flux, FluoZin2; at 10 µM; stronger effect = higher value; submaximal glutamate (EC20) added with thallium
row,SMILES,z-score
1,COc1cc(NS(=O)(=O)c2ccc3c(c2)oc(=O)n3C)cc(OC)c1OC,-0.711
2,COc1ccccc1Oc1c(C)oc2c(CN3CCN(C)CC3)c(O)ccc2c1=O,-1.09
3,O=c1[nH]c(CO)nc2c1oc1ccccc12,-0.461
4,O=C(NC1CCCC1)c1nc2c(nnn2Cc2ccccc2Cl)c(=O)[nH]1,-1.3
5,COc1ccc(NC(=O)C(C)NS(=O)(=O)c2ccc(NC(C)=O)cc2)cc1Cl (centres undefined),-0.0141
6,O=C(O)c1ccc(CSCc2ccco2)cc1,0.0339
7,O=C(Cn1cc2c(n1)CCCCC2)N1CCc2ccccc2C1,0.398
8,O=C(Cn1c(-c2cscn2)nc2ccccc21)Nc1ccc(Cl)cc1,-0.942
9,CCOP(=O)(OCC)C(Nc1cccc(C(F)(F)F)c1)c1ccc(F)cc1 (centres undefined),-0.398
10,CC1CCCC(C)N1C(=O)Cn1c(SCC(=O)NCc2ccc3c(c2)OCO3)nc2ccccc21 (centres undefined),0.0663
11,O=C(Nc1ccn(Cc2ccccc2F)n1)c1ccc(COc2ccccc2Cl)cc1,-0.127
12,COc1ncnc2c1oc1nc(C(C)C)c3c(c12)CC(C)(C)OC3,-0.167
13,COc1ccc(C)cc1NC(=S)NNC(=O)c1ccccc1Cl,0.678
14,CC(C)=CC1C=C(C)C(C)C2C(=O)NNC(=O)C12 (centres undefined),-0.201
15,CCOc1cc(NC(=S)NCC(C)C)c(OCC)cc1NC(=O)c1cccs1,-0.0613
16,CSC1=N/C(=C\c2ccc(F)cc2)C(=O)S1,-0.817
17,O=c1sc2ccccc2n1CCOc1ccccc1,-0.0541
18,O=C1c2ccccc2C(=O)N1CCCc1nc(-c2ccccn2)no1,-0.44
19,CC1CCN(CCNC(=O)CN(C)S(=O)(=O)c2cccc3nsnc23)CC1,0.105
20,COc1cc(-c2noc(C3CCCN(S(=O)(=O)c4cccc(Cl)c4)C3)n2)cc(OC)c1OC (centres undefined),-0.013
21,COCCNC(=O)/C(C#N)=C/c1ccc(-c2ccc(S(=O)(=O)N3CCOCC3)cc2)o1,-0.137
22,CCc1ccc(N/C(SCc2ccccc2C)=C(/C#N)C(=O)NCc2ccco2)cc1,-0.191

row,SMILES,z-score
1,CCOC(=O)N1CCC(NC(=O)c2cnn3ccccc23)CC1,-0.109
2,NC(=O)c1ncc(C(F)(F)F)cc1Oc1cccc(F)c1,-0.0977
3,CCCS(=O)(=O)C(=C1Nc2ccccc2N1)S(=O)(=O)CCC,-0.282
4,CCN(CC)CC(=O)Nc1nc(-c2ccc(Cl)cc2)cs1,0.792
5,O=C(O)c1ccc(CSc2nc(-c3ccc(Cl)cc3)cc(C(F)(F)F)n2)cc1,-0.682
6,CNS(=O)(=O)c1cnccc1N1CCN(c2cccc(Cl)c2)CC1,-0.238
7,Clc1ccc(/C=C/c2nc3ccccc3[nH]2)c(Cl)c1,-0.57
8,COC(=O)c1cc(NC(=O)CC2NC3CCCCC3NC2=O)cc(C(=O)OC)c1 (centres undefined),0.0785
9,COC(=O)c1ccccc1S(=O)(=O)N(Cc1cc2cc3c(cc2[nH]c1=O)OCO3)C1CCCCC1,0.242
10,O=C(O)CC(NC(=O)C1c2ccccc2Oc2ccccc21)c1ccc(Cl)cc1 (centres undefined),-0.121
11,CC1(C)Cc2c(sc3nc(SCC(=O)NCc4ccccc4)n(-c4ccccc4)c(=O)c23)CS1,0.0784
12,COc1cccc(NC(=O)COC(=O)c2c(-c3ccccc3)noc2C)c1,0.34
13,Cc1cc(OCC(=O)O)c2ccccc2n1,-0.146
14,COc1ccc(-c2noc(CN(C(=O)c3c(-c4ccccc4Cl)noc3C)C(C)C)n2)cc1,-0.709
15,Cn1cc(S(=O)(=O)Nc2ccc(F)cc2F)c(=O)n(C)c1=O,-0.722
16,COc1ccc(-c2c(C(C)=O)c(C)nc3sc4c(=O)n(-c5ccc(C)cc5)nnc4c23)cc1,-0.165
17,CCOc1ccc(OCC)c(NC(=O)CNS(=O)(=O)c2cccs2)c1,-1.51
18,COc1cc(/C=C2/SC(=S)N(CC3CCCO3)C2=O)ccc1O (centres undefined),1.69
19,CCOC(=O)C1CCCN(CCC(C)c2ccccc2)C1 (centres undefined),0.261
20,Cc1cc(C)nc(SCCS(=O)(=O)Cc2ccc(Cl)cc2)n1,0.154
21,O=C(CSc1nc2ccccc2c(=O)n1CCCN1CCOCC1)Nc1cccc(S(=O)(=O)N2CCCCCC2)c1,0.74
22,Cc1cc(N2CCC(C)CC2)nc(-n2nc(C)cc2C)n1,-0.389

row,SMILES,z-score
1,Cc1ccc(NC(=O)c2sc3ccccc3c2Cl)nc1,-0.355
2,Cc1ccc(-c2nnn(CC(=O)N(c3ccccc3)C(C(=O)NC3CCCC3)c3ccco3)n2)o1 (centres undefined),0.0303
3,Cc1ccc(NC(=S)NCc2cccnc2)cc1,-0.132
4,O=C(c1cccnc1)N1CCN(C(=O)c2ccco2)CC1,0.0314
5,CCOC(=O)NC1(NCC(C)C)Oc2ccccc2O1,-0.313
6,Nc1nc2n(n1)C(c1ccc(F)cc1)CC(c1ccc(F)cc1)N2 (centres undefined),0.0113
7,Cc1ccc(-n2c(SCC(=O)Nc3cc(C)on3)nc3c([nH]c4ccccc43)c2=O)cc1,0.754
8,c1ccc(Cn2nnnc2C(c2ccccn2)N2CCN(c3ccccc3)CC2)cc1 (centres undefined),-0.925
9,Cc1cc(C)n(C(=O)CCCCCC(=O)n2nc(C)cc2C)n1,-0.425
10,COc1cccc(N=c2oc3ccc(OC)cc3cc2-c2nc3ccccc3[nH]2)c1,0.503
11,Cc1cc(C)cc(C(=O)O/N=C(\N)c2ccc(Br)cc2)c1,0.0108
12,CCOc1ccc(N(CC(=O)Nc2ccc(OC)cc2)S(=O)(=O)c2c(C)noc2C)cc1,-0.129
13,COc1ccc(Nc2nc(-c3cccs3)nc3ccccc23)cc1,-0.199
14,O=C(NN1C(=O)c2ccccc2C1=O)C1CCCCC1,-0.39
15,CC1=NCCN1S(=O)(=O)c1cc(Cl)ccc1Cl,0.459
16,CCn1nnc(C(=O)O)c1C(=O)O,0.0169
17,CCCCNS(=O)(=O)c1ccc(S(=O)(=O)NCc2ccncc2)cc1,2.5
18,O=C(CCN1C(=O)/C(=C/c2cccs2)SC1=S)NC1=NCCS1,-0.0426
19,COc1ccccc1NC(=O)Oc1ccc(C(C)=O)cc1,-0.0596
20,O=C(COc1ccc(Cl)cc1)OCC(=O)N1CCCc2ccccc21,-0.548
21,Cc1nc(C)c(C(=O)NNC(=O)c2ccc(Br)cc2)s1,-0.0708
22,CCOC(=O)C(=O)/C(=C\N(C)C)c1onc(-c2c(F)cccc2Cl)c1C(=O)OC,1.03

row,SMILES,z-score
1,C=CCc1ccc(OCCCN2CCCC(C)C2)c(OC)c1 (centres undefined),1.11
2,CCCCc1c(O)nc2sccn2c1=O,-0.251
3,Cc1ccc(S(=O)(=O)N(C)C)cc1NC(=O)CCNC(=O)c1ccccc1Cl,-0.212
4,CC1(C)CC(=O)C2=C(C1)OC1=C(C(=O)CC(C)(C)C1)C2(C)C,-0.182
5,NC(=O)C1CCN(CCCNC2CC(=O)N(Cc3ccc(N4CCCC4=O)cc3)C2=O)CC1 (centres undefined),1.16
6,CCOC(=O)CSc1nc(C)cc(C)n1,-0.0344
7,CCOc1ccc(OC(=O)NC(c2ccccc2)C(Cl)(Cl)Cl)cc1 (centres undefined),-0.048
8,c1ccc(-c2c(-c3ccccc3)n(Cc3ccco3)c3ncnc(NCCCn4ccnc4)c23)cc1,2.78
9,CCOC(=O)N1CCC(NS(=O)(=O)c2cc3c(cc2Cl)NC(=O)CO3)CC1,0.122
10,O=C(NC1CCCCCC1)c1cccc(N2CCCC2=O)c1,-0.399
11,COc1ccccc1C1/C(=C(/O)c2ccc(C)cc2)C(=O)C(=O)N1Cc1ccco1 (centres undefined),-0.766
12,CCC(=O)Nc1ccc(Cl)c(NC(=O)c2ccc(Br)o2)c1,-1.17
13,COC(=O)C1=C(C)OC(N)=C(C#N)C1c1ccccc1 (centres undefined),-0.92
14,CCOC(=O)c1[nH]c(C)c(C(=O)c2ccc(C)cc2)c1C,-0.701
15,Cc1ccc(-n2c(N)c(C#N)c(-c3ccc(Cl)cc3)c(C#N)c2=O)cc1,-0.0258
16,C=CCN1C(=O)C(CC(=O)NCC)SC1=Nc1ccc(S(N)(=O)=O)cc1 (centres undefined),0.98
17,Nc1ccc(S(=O)(=O)c2ccc(Cl)cc2)cc1,-0.574
18,CCC(=O)N1c2ccccc2C(N(C(C)=O)c2ccccc2)CC1C (centres undefined),-0.0628
19,O=c1c2ccccc2nc2n1C(CSc1ccc(Cl)cc1)CN2 (centres undefined),-0.214
20,CCOc1cc(CNCc2ccncc2)cc(Br)c1OCc1ccc(F)cc1,0.596
21,COc1cccc(/C=N/n2c(-c3cccs3)n[nH]c2=S)c1,active: 3.25
22,CC#CCCCC(=O)Nc1ccccc1C(=O)O,0.113

row,SMILES,z-score
1,Cn1cc([N+](=O)[O-])c(C(=O)Nc2ccc(Br)cn2)n1,0.227
2,Cc1ccc(NC(=O)CSC2=C(C#N)C(c3ccco3)C3=C(CC(C)(C)CC3=O)N2)cc1 (centres undefined),-2.52
3,O=C1CCCCC1C(Nc1ccc(Cl)cc1)c1ccccc1 (centres undefined),-0.186
4,Cc1cc(C(=O)N/N=C/c2cccc([N+](=O)[O-])c2)c2ccccc2n1,0.333
5,O=C(O)CCn1c(C(=O)O)cc2sccc21,0.105
6,COc1ccccc1CNC(=O)C1CCCN(S(=O)(=O)c2cnc[nH]2)C1 (centres undefined),-0.0986
7,Cc1c(Cl)cccc1NC(=O)[C@@H](NC(=O)c1ccccc1Cl)C(C)C,1.14
8,CCOC(=O)c1cc(C)n(Cc2ccc(OCC)c(OC)c2)c1C,-0.962
9,COCC(N)(c1ccccc1)c1nc2ccccc2n1C (centres undefined),-0.582
10,COc1cccc(/C=N/NC(=O)C(=O)N2CCCC2)c1OC,-0.494
11,Cn1c(CCNC(=O)c2ccco2)nc2cc(NC(=O)C3CCCCC3)ccc21,0.619
12,O=C(Nc1ccc2c3c(cccc13)CC2)c1ccco1,0.0277
13,Cc1cc(C)n(-c2nc(SCCN(C)C)c3c4c(sc3n2)COC(C)(C)C4)n1,0.446
14,CCCNC(=O)COc1ccc(S(=O)(=O)Nc2ccc(C)cc2)cc1,0.229
15,CCCC(C(=O)NCc1ccccc1)N(C(=O)Cn1nnc(-c2cccs2)n1)c1ccc2c(c1)OCCO2 (centres undefined),0.325
16,CC(C)n1c(NCCc2ccccc2)nc2c1c(=O)n(C)c(=O)n2C,2.39
17,COc1ccc(O[C@@H]2O[C@H](COC(C)=O)[C@@H](OC(C)=O)[C@H](OC(C)=O)[C@H]2NC(C)=O)cc1,-0.217
18,Cc1cc(S(=O)(=O)N2CCCC2)ccc1OCC(=O)NCc1ccco1,0.134
19,N#Cc1c2c(c(-n3cnc4ccccc43)n3c1nc1ccccc13)CCC2,-0.0882
20,O=P(O)(O)COc1ccccc1P(=O)(c1ccccc1)c1ccccc1,0.0273
21,Cc1ccc(C(=O)c2c[nH]c3c(F)cc(F)cc3c2=O)cc1,-0.0527
